Measurements taken from publication PMC6078952.
These are yes or no findings as the source states them, for the method shown.

Amino acid sequences for entries named in this document (tags omitted). A change or cut given only in a name is not applied to a line headed by its entry. Chains listed by the source or under a name are the forms on record and can include a tag or linker. Residues count along the entry.
UniProt P08648: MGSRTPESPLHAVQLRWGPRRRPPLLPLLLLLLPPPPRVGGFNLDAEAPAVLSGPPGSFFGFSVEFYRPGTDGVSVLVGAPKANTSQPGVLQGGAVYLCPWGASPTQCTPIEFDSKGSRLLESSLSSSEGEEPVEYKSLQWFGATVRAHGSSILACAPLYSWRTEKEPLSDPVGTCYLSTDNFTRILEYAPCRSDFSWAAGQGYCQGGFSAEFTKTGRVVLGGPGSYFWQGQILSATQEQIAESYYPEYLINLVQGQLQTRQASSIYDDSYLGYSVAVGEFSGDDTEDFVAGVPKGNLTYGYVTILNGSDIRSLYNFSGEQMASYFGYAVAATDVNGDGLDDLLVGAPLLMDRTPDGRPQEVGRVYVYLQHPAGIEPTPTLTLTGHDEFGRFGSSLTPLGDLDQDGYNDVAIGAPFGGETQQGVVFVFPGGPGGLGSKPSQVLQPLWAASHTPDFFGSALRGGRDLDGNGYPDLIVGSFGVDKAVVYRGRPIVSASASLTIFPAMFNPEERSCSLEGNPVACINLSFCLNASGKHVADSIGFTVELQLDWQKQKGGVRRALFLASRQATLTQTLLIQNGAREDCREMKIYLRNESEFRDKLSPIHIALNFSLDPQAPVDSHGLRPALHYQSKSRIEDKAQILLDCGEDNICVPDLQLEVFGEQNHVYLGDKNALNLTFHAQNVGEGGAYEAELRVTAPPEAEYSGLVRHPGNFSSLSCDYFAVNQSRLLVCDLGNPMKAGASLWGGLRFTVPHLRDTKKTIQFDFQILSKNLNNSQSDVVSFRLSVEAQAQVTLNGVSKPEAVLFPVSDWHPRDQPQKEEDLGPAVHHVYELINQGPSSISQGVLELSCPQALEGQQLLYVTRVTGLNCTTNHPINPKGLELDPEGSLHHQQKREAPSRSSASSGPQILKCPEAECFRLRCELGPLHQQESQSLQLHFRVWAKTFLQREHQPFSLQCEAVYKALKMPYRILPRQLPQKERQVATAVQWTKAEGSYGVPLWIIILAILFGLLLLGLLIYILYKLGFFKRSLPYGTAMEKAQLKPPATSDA
UniProt Q9BXS0, residues 113-654: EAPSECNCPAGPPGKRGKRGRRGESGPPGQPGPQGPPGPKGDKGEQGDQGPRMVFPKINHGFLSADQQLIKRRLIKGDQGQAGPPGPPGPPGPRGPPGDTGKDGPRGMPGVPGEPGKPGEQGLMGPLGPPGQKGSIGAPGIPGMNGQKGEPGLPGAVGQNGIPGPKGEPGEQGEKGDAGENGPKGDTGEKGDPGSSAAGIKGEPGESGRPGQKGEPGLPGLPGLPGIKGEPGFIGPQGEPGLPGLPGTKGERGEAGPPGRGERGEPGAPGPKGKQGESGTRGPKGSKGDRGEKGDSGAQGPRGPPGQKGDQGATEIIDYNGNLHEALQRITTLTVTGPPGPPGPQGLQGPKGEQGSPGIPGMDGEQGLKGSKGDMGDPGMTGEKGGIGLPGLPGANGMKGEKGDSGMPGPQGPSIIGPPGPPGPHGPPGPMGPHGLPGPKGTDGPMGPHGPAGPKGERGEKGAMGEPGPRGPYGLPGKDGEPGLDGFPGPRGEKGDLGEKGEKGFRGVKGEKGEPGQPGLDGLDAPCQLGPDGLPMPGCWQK
UniProt P07585, residues 17-359: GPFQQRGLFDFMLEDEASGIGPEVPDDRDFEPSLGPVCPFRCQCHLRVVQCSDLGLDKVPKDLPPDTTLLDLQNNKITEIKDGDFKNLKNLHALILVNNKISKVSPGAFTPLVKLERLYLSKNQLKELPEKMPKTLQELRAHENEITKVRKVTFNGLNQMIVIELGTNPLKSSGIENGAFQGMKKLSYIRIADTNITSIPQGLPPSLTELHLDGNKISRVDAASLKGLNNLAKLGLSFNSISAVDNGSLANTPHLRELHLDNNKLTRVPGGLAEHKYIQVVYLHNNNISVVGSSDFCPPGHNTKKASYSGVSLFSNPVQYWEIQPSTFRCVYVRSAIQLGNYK
UniProt O14786, residues 23-815: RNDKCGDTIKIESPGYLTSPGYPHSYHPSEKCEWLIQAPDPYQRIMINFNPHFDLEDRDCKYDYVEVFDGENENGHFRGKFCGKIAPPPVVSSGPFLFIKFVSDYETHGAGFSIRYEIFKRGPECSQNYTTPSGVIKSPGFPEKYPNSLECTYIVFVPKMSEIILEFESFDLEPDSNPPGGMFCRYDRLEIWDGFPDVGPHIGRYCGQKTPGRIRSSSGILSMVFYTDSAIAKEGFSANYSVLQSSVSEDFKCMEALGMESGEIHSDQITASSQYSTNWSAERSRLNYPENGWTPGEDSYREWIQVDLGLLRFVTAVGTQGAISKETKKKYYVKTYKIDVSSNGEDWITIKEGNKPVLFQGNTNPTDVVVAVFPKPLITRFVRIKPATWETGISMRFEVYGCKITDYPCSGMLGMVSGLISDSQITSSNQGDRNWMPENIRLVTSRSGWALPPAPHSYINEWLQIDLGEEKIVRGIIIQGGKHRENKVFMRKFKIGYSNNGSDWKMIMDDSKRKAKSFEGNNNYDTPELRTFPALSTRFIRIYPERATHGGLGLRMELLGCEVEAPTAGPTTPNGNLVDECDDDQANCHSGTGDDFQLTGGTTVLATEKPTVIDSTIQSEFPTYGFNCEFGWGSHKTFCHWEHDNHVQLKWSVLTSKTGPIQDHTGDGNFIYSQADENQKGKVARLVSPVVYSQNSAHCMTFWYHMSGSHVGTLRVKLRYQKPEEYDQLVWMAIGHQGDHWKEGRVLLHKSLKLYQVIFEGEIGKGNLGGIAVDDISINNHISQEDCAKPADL
UniProt P16234, residues 24-524: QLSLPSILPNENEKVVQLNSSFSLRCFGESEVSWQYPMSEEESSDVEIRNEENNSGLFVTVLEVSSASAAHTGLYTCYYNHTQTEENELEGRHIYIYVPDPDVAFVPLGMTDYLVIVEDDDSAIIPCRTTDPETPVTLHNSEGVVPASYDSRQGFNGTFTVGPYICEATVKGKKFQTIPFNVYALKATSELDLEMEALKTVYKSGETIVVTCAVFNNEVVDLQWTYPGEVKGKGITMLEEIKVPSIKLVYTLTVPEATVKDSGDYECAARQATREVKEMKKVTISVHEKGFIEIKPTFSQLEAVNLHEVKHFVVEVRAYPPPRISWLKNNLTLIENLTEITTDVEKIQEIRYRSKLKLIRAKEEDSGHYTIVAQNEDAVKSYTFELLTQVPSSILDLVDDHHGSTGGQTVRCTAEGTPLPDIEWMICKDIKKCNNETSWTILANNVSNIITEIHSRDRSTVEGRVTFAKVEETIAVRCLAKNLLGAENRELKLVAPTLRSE
UniProt O75056, residues 48-383: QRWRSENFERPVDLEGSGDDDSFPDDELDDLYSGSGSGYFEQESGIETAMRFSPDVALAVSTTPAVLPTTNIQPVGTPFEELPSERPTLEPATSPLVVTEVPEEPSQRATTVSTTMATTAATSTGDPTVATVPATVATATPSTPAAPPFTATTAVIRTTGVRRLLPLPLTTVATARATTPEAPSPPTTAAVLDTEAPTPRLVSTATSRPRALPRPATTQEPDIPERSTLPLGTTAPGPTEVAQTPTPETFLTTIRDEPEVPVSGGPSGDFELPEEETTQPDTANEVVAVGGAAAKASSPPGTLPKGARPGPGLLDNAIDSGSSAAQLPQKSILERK
UniProt Q9UEW3, residues 79-520: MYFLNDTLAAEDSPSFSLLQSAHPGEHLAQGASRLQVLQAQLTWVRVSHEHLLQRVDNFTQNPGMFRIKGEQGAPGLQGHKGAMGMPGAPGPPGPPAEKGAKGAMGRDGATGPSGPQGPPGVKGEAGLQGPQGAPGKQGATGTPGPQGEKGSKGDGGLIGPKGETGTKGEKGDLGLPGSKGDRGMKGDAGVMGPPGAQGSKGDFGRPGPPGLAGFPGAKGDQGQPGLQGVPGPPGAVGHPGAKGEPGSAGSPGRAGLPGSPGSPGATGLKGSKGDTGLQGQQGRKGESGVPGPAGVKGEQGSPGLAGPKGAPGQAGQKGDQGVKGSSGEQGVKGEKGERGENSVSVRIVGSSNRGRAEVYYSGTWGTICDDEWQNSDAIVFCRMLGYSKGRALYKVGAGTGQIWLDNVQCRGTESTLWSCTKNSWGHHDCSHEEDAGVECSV
UniProt P34741, residues 19-144: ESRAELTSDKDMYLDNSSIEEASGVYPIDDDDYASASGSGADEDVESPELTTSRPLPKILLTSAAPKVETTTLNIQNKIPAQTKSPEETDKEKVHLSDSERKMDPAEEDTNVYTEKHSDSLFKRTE
Lysyl oxidase propeptide (LOX-PP) (Pro24Leu) (P28300, form named): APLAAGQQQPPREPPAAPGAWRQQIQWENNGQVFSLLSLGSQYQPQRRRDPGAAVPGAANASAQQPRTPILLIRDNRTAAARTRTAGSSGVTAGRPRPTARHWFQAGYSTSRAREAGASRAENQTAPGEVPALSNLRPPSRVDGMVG

Legend:
Experiment in all cases: SPR; SPR imaging (SPRi, Biacore Flexchip): partners spotted in triplicate on a bare gold chip at 0.06 to 1 mg/ml; purified LOX-PP injected at 2 µM and recirculated for 20 min; PBS with 0.05% Tween 20, 25 °C; both purified
Neuroglycan C = molecular target: T1, Neuroglycan C (UniProt O95196)
T1 sequence: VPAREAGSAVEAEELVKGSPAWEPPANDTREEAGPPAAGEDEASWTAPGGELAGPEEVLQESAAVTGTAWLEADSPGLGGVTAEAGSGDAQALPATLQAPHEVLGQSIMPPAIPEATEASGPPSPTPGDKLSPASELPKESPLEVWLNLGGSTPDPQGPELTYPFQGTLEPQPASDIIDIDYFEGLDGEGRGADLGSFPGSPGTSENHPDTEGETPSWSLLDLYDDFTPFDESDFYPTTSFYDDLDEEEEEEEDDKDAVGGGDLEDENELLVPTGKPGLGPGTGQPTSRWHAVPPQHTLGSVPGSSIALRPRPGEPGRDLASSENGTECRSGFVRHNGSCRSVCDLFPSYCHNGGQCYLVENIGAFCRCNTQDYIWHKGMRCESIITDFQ

Integrin α5β1 ectodomain = Integrin α5β1 ectodomain (UniProt P08648)
Collagen XXV ectodomain = Collagen XXV ectodomain (UniProt Q9BXS0)
Decorin = Decorin (UniProt P07585)
[1] = molecular target: Neuropilin-1 (NRP1) ectodomain (UniProt O14786)
[2] = molecular target: Platelet-derived growth factor receptor alpha (PDGFRα) (UniProt P16234)
Glypican 1 = molecular target: T2, Glypican 1 (UniProt P35052)
T2 sequence: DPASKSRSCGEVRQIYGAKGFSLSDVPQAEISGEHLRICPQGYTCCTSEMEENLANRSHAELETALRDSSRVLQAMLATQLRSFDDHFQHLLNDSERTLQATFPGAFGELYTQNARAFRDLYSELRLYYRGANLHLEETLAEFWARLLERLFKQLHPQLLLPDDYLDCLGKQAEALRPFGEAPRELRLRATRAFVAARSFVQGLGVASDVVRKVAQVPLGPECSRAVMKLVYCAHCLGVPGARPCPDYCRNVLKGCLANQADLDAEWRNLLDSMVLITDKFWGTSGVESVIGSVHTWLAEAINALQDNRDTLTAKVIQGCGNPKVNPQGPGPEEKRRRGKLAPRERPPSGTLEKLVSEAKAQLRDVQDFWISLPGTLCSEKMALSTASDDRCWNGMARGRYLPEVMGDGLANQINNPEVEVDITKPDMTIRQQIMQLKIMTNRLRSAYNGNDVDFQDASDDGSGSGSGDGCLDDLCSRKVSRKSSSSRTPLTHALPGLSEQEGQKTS

Catalase = molecular target: T3, Catalase (UniProt P00432)
T3 sequence: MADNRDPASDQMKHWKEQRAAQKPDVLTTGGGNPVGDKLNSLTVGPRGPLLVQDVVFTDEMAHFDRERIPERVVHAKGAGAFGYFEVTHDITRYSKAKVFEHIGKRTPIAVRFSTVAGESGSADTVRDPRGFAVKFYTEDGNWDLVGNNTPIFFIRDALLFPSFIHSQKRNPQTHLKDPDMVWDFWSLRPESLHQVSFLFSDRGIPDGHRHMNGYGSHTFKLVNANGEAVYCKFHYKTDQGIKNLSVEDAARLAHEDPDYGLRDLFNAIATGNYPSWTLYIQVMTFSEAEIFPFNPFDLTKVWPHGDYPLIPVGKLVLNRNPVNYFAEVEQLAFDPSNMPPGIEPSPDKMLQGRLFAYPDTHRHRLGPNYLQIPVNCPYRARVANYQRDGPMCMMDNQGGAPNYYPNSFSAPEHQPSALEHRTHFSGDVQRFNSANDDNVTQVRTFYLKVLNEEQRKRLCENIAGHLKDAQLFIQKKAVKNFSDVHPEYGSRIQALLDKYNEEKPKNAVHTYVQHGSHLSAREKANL

Syndecan-3 ectodomain = Syndecan-3 ectodomain (UniProt O75056)
[3] = molecular target: Macrophage receptor MARCO (UniProt Q9UEW3)
Syndecan-2 ectodomain = Syndecan-2 ectodomain (UniProt P34741)

binding (Neuroglycan C): no binding (tested: 2 µM)
binding (Integrin α5β1 ectodomain): no binding (tested: 2 µM)
binding (Collagen XXV ectodomain): no binding (tested: 2 µM)
binding (Decorin): no binding (tested: 2 µM)
binding [1]: no binding (tested: 2 µM)
binding [2]: no binding (tested: 2 µM)
binding (Glypican 1): no binding (tested: 2 µM)
binding (Catalase): no binding (tested: 2 µM)
binding (Syndecan-3 ectodomain): no binding (tested: 2 µM)
binding [3]: no binding (tested: 2 µM)
binding (Syndecan-2 ectodomain): no binding (tested: 2 µM)
Substance: Lysyl oxidase propeptide (LOX-PP) (Pro24Leu) (from UniProt P28300 22-168) (domain or fragment)
